For 172 sequences, binding signal results are on record in PMC10668032.

The list shows a part of the results. At the low end of the ranking the order means little.

The target of this assay is SIX1 homeodomain (reference allele) (UniProt Q15475). Put plainly: universal protein binding microarray. Particulars: Universal all-10-mer PBM (8x60K, AMADID 030236), 300 nM GST-tagged protein, Alexa Fluor 488 anti-GST; buffer, salt, pH and temperature not stated; high values mean tight binding; most listed sequences are background and not binding sites; double strand, one strand shown.
ACTCACAC: the binding signal is 0.09 E-score.
For ACTGTACT, the binding signal is -0.188 E-score.
For TACATCCA the value was 0.156 E-score.
On to ACCGGCAT, for which the binding signal turned out to be 0.0696 E-score.
Regarding CACCTCTG, the binding signal is -0.0822 E-score.
For AATTATAA the value was -0.215 E-score.
On to ATTACGTA, for which the binding signal was 0.0401 E-score.
Consider AATGCTAG, for which the binding signal was -0.0256 E-score.
Regarding AACTTAAT, the binding signal is -0.0808 E-score.
On to CGCGGCAG, for which the binding signal is -0.152 E-score.
Consider ACTGATGC, for which the binding signal is 0.101 E-score.
Turning to TATAGCGA, the binding signal was determined as 0.164 E-score.
Take CTAACTAG: the binding signal is -0.00945 E-score.
For AAATGGCC the value was -0.342 E-score; for AGGCTGGC, -0.316 E-score.
In the case of CAAGATCC, the binding signal turned out to be 0.304 E-score.
Turning to GCAACGTA, the binding signal is -0.106 E-score.
With AAGCCTTC, the binding signal is -0.0552 E-score.
In the case of GCTACTGA, the binding signal is -0.00656 E-score.
Regarding GACCTGAC, the binding signal is -0.0575 E-score.
Take AAACTGTC: the binding signal is -0.121 E-score.
For the sequence CGCCTGTC, the binding signal is -0.142 E-score.
In the case of TGAAGAAA, the binding signal was -0.346 E-score.
As to ATTTATGA, the binding signal was -0.0471 E-score.
For GTCGCGCA, the binding signal is -0.226 E-score.
Take CGCTCTTC: the binding signal is -0.112 E-score.
Consider GGCACACA, for which the binding signal is -0.115 E-score.
With AGCCGGAG, the binding signal worked out at 0.0922 E-score.
Under TATCCAAA stands 0.297 E-score; under ATTGGAGG, -0.0132 E-score.
For the sequence ACTAAGGA, the binding signal is -0.118 E-score.
For AGTTCGCA the value was -0.24 E-score; for ATTTGTTC, 0.0847 E-score; for AACAGAAT, -0.267 E-score.
TTAGAAAA: the binding signal is -0.122 E-score.
Take ACAACCAA: the binding signal is -0.18 E-score.
As to CCCCACGG, the binding signal worked out at 0.138 E-score.
CCGAGCAC: the binding signal came to 0.0323 E-score.
For CTATAGTC the value was -0.0843 E-score.
Turning to CGACTTTC, the binding signal was -0.0569 E-score.
For GAGTAAAC the value was -0.0107 E-score.
For AACCAGCC, the binding signal is -0.135 E-score.
Turning to ATCGCATA, the binding signal came to 0.287 E-score.
For AAGAGAAT the value was -0.201 E-score; for CCCCCAAG, -0.0809 E-score.
For CCACATCA the value was -0.149 E-score.
Take TGCATAAA: the binding signal was -0.0101 E-score.
Regarding AGTGCCTC, the binding signal is -0.187 E-score.
As for CAATTTAA, the binding signal was -0.124 E-score.
As to AGCGGGGA, the binding signal came out at 0.0641 E-score.
As to GTTACGCA, the binding signal is -0.191 E-score.
AGCCGGTC: the binding signal is -0.154 E-score.
For GCACACTA the value was -0.0581 E-score; for ACACGAGC, -0.0821 E-score.
As for CGGACGCA, the binding signal was -0.234 E-score.
Turning to ACCTCCAT, the binding signal was -0.145 E-score.
For GCTCTGAA the value was -0.11 E-score.
Take CGCATAGC: the binding signal is -0.153 E-score.
Turning to CCTAGTAA, the binding signal was -0.0914 E-score.
For ACACAGCA, the binding signal was -0.0345 E-score.
GTAAGATA: the binding signal is 0.3 E-score.
With ACCTAAGA, the binding signal is -0.109 E-score.
As for ACATGACT, the binding signal is -0.263 E-score.
Turning to GGTTGTTA, the binding signal was -0.0579 E-score.
For CATGATCA the value was 0.177 E-score; for ATATGCAA, 0.163 E-score.
Regarding ATGGTGCA, the binding signal amounted to 0.00462 E-score.
For ACTCGTGG the value was -0.136 E-score; for GATCCCCA, 0.387 E-score; for CTCTCAAA, -0.181 E-score.
Regarding CATAGTAA, the binding signal was -0.0152 E-score.
Under AGGTGCCG stands -0.0651 E-score; under AGTGGACC, -0.242 E-score.
As to CGATATAG, the binding signal stood at 0.362 E-score.
In the case of AGAAGGTC, the binding signal was -0.0224 E-score.
Turning to AGTTAATG, the binding signal is -0.111 E-score.
ATAAACTG: the binding signal was found to be 0.0387 E-score.
As for AGCGCTTC, the binding signal was -0.0809 E-score.
For AGCGGTCC, the binding signal is -0.256 E-score.
In the case of CCACTGAA, the binding signal was -0.0419 E-score.
For CCGGGACG, the binding signal is -0.0563 E-score.
CTCAGCCC: the binding signal was -0.191 E-score.
For the sequence GAATAGGC, the binding signal was -0.152 E-score.
For AATCTAAA, the binding signal was -0.111 E-score.
As to CAGCTAAC, the binding signal is -0.135 E-score.
Take CGTTTGAA: the binding signal is -0.0361 E-score.
TATAGATA: the binding signal amounted to 0.347 E-score.
For CCCGGTCG, the binding signal is 0.0848 E-score.
As to CGAAAGAC, the binding signal is -0.376 E-score.
For ATGTAAAT the value was -0.0187 E-score; for AACAGGAC, -0.217 E-score.
For CATTATAA, the binding signal was found to be 0.0163 E-score.
Turning to ACGCCATA, the binding signal came to 0.151 E-score.
Take GCAAGGTA: the binding signal was -0.0989 E-score.
For the sequence CTTTACCC, the binding signal came out at 0.0507 E-score.
Regarding ATTACAAT, the binding signal was -0.0225 E-score.
With AGAAACCT, the binding signal was determined as 0.0669 E-score.
As to GAGCATCC, the binding signal was found to be 0.0158 E-score.
Consider AATGGGAG, for which the binding signal is -0.194 E-score.
For AATATCAC, the binding signal came out at 0.38 E-score.
Regarding CAACGAAA, the binding signal is -0.0394 E-score.
For the sequence GCCTGAGA, the binding signal was -0.0184 E-score.
Turning to CGATGAAA, the binding signal is -0.114 E-score.
For the sequence ACGCCGTC, the binding signal is -0.00732 E-score.
Turning to GCGCTAGC, the binding signal was -0.36 E-score.
As for ATAATCCC, the binding signal came to 0.368 E-score.
For AAGCGTGT, the binding signal was -0.215 E-score.
In the case of CTAGCGGA, the binding signal is -0.299 E-score.
For CGGCTCAC the value was 0.174 E-score; for ACAGTGAC, -0.00771 E-score.
Turning to TCGTCGAA, the binding signal is -0.278 E-score.
In the case of GACATAGA, the binding signal was -0.168 E-score.
With GGCGTGAA, the binding signal was -0.0462 E-score.
Under ACAGTAGC stands -0.306 E-score; under CTTTCCGA, -0.116 E-score.
For TGAGTGAA, the binding signal is -0.0636 E-score.
On to GGCTCGAC, for which the binding signal is -0.0764 E-score.
On to CTCCGAAG, for which the binding signal turned out to be 0.0719 E-score.
As for CAAACCTC, the binding signal was -0.164 E-score.
Under ATTGCATC stands -0.0427 E-score; under CCGTGACA, 0.11 E-score.
As for ACATCTTA, the binding signal is -0.169 E-score.
For the sequence ATCCACAA, the binding signal is 0.256 E-score.
Regarding GCTCAACC, the binding signal is -0.0824 E-score.
For the sequence ACTCCATG, the binding signal worked out at 0.0786 E-score.
Take GAGGTTTA: the binding signal worked out at 0.101 E-score.
Under ACTTCACT stands -0.171 E-score; under AGACCAGA, 0.0871 E-score.
On to ATGAACTG, for which the binding signal was -0.104 E-score.
With AGAACGAA, the binding signal worked out at 0.0098 E-score.
As to CCGTGGAA, the binding signal is -0.0909 E-score.
Turning to CGTTGTCC, the binding signal was -0.142 E-score.
Turning to ATTTGGTC, the binding signal is -0.137 E-score.
Regarding ATTATGGC, the binding signal stood at 0.125 E-score.
In the case of GATGAAAA, the binding signal is -0.0623 E-score.
On to AGTCTGAC, for which the binding signal is -0.0773 E-score.
For GCTAATTA the value was -0.122 E-score; for GATTCACC, -0.0667 E-score.
On to GCCGCCAA, for which the binding signal is -0.317 E-score.
Turning to CCCGTACG, the binding signal was 0.0056 E-score.
With GCATTCCA, the binding signal is -0.127 E-score.
For ATCGACAA, the binding signal came to 0.0887 E-score.
Turning to CCGGTTAA, the binding signal is -0.0542 E-score.
For the sequence TAAGTGAA, the binding signal is 0.0328 E-score.
Take AAGAATTA: the binding signal is -0.241 E-score.
Take CGGGGAGA: the binding signal was found to be 0.182 E-score.
For CAGTCCCG, the binding signal was -0.217 E-score.
In the case of ATCCAATA, the binding signal is 0.255 E-score.
Consider CAATTTAG, for which the binding signal stood at 0.0138 E-score.
For CTGTGCCC the value was -0.0384 E-score; for CCCTGATC, 0.33 E-score; for ACTCCGGC, -0.12 E-score.
For CCCCAAGG, the binding signal was 0.0389 E-score.
Under TCCGTCCA stands 0.0778 E-score; under ATCAGAGA, 0.225 E-score; under TAGTGCGA, -0.158 E-score.
In the case of CCGGGGAA, the binding signal was -0.109 E-score.
In the case of AAAATACT, the binding signal worked out at 0.0214 E-score.
Consider CCAATTTC, for which the binding signal is -0.151 E-score.
Regarding AATCAATG, the binding signal is -0.143 E-score.
In the case of CGTGTCCC, the binding signal is -0.0253 E-score.
For GACAGGGC the value was -0.159 E-score; for AAGCCTAG, -0.0716 E-score.
CAATTGTC: the binding signal is -0.135 E-score.
Regarding TCAACACA, the binding signal is -0.0488 E-score.
As for CTTCTGAC, the binding signal is -0.259 E-score.
Consider GACAGGTC, for which the binding signal was -0.186 E-score.
For AGCCAATA the value was -0.047 E-score; for AAATAACC, -0.184 E-score; for AACCTTGA, -0.00602 E-score.
In the case of AGAAAAAG, the binding signal is -0.172 E-score.
Consider CCTCGTCA, for which the binding signal was -0.114 E-score.
